Results from US20230416360A1 (SIMCERE ZAIMING PHARMACEUTICAL, published 2023).

T1: murine CD22-ECD-His (mouse, UniProt P35329 22-708)
T1 construct: extracellular domain; Bought; also called mouse CD22; murine CD22 protein
T1 sequence (looked up): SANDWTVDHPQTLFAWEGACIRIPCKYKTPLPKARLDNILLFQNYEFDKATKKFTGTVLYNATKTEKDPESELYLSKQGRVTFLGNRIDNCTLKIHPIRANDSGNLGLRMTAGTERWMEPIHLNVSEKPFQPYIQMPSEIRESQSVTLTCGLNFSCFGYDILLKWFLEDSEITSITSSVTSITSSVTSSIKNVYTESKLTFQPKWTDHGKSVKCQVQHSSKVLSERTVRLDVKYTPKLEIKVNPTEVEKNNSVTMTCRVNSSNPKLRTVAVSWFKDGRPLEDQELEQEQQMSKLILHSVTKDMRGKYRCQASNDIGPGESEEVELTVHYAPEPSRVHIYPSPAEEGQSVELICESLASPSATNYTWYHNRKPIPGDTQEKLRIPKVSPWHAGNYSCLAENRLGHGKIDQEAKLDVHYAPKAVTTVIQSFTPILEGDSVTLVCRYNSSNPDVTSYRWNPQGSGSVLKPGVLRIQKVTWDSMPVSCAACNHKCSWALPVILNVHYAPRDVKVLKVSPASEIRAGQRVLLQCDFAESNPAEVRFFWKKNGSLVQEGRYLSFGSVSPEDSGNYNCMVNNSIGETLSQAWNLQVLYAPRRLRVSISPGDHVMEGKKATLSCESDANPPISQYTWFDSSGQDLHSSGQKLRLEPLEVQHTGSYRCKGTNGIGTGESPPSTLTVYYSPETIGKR

T2: human CD22 domain5-7-His (human, UniProt P20273 414-687)
T2 construct: Proximal end of membrane fragment; also called hCD22 domain5-7-His; not shown: His tag
T2 sequence: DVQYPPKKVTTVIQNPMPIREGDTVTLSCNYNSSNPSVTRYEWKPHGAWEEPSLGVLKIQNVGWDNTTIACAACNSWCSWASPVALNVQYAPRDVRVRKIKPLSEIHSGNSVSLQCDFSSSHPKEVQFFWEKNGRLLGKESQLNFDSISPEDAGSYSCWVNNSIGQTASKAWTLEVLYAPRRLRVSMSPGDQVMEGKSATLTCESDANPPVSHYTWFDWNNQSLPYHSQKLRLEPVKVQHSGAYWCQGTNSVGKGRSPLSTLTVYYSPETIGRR

B1: S002-NB151-2 VHH-Fc (Fc fusion)
chain: QVQLVESGGGLVQAGDSLRLSCAASGRTFSPSTMAWFRQAPGKERELVARIGWTYGDTYYVDSAKGRFTISMDNVKNTVYLQMNSLKPEDTAVYYCAALFRGGLSYNFSNRGTQVTVSS[human IgG1 Fc with changes cut from this listing]
notes: VHH cloned into vector BI3.4-huIgG1 (hinge and human IgG1 Fc), made in HEK293E; also called 5002-NB151-2
B2: S002-NB151-23 VHH-Fc (Fc fusion)
chain: QVQLVESGGGLVQAGGSLTVSCTNSGRTLSTSTIAWFRQKPGKDSEFVAAIRWSGGMGWYADSVKGRFTISRDNAENTVSLQMNTLQPEDTAVYFCAVSTVPYYGSIYTRVGDYPYWGQGTQVTVSS[human IgG1 Fc with changes cut from this listing]
notes: VHH cloned into vector BI3.4-huIgG1 (hinge and human IgG1 Fc), made in HEK293E; also called 5002-NB151-23
B3: S002-NB151-30 VHH-Fc (Fc fusion)
chain: QVQLVESGGGLVQAGGSLRLSCAASGRASGSGAMGWFRQAPGQERRFVAGIEWSSGGPVYADSVKGRFTLSRDNAKNTVHLQMNSLKPEDTAVYYCAAAPWVFSSPDDYMYWGQGTQVTVSS[human IgG1 Fc with changes cut from this listing]
notes: VHH cloned into vector BI3.4-huIgG1 (hinge and human IgG1 Fc), made in HEK293E; also called 5002-NB151-30
B4: S002-NB151-66 VHH-Fc (Fc fusion)
chain: QVQLVESGGGLVQAGGSLRLACAASGDTVSIYYMGWFRQAPGKEREFVGALSASGQFTDHADSVKGRFTISRDDAQNTVFLHMNDLKPEDTAVYYCAVQRYGWVYRTDKTMYNYWGQGTQVTVSS[human IgG1 Fc with changes cut from this listing]
notes: VHH cloned into vector BI3.4-huIgG1 (hinge and human IgG1 Fc), made in HEK293E
B5: S002-NB151-82 VHH-Fc (Fc fusion)
chain: EVQVVESGGGLVQAGDSLRLSCTTSGRTFYGDYIAWFRQAPGKEREFVAAIAVRGRGTFYGDSVKGRFTISRDNAENTLSLQMNSLKPEDTAVYYCAADAGSYASRGFPVRETGRYDYWGQGTQVTVSS[human IgG1 Fc with changes cut from this listing]
notes: VHH cloned into vector BI3.4-huIgG1 (hinge and human IgG1 Fc), made in HEK293E; also called 5002-NB151-82
B6: S002-NB150-2 VHH-Fc (Fc fusion)
chain: QVQLVESGGGLVQPGGSLRLSCAASGSWFNIAMGWFRQAPGKEREFVAGIRWSDSKTYYADSVKGRFTISGDNAKNTTYLQMNSLKPEDTAVYYCAAQRYYRGSYNRQTNYDHWGQGTQVTVSS[human IgG1 Fc with changes cut from this listing]
notes: VHH cloned into vector BI3.4-huIgG1 (hinge and human IgG1 Fc), made in HEK293E; also called 5002-NB150-2
B7: S002-NB150-5 VHH-Fc (Fc fusion)
chain: QLQLVESGGGLVQAGGSLRLSCVGSGDRVSIALMGWFRQAPGKEREFVAAISPSGGRITYSDSVKGRFTISRDNAKNTVYLQMNSLKRDDTAVYVCAANFRGYLSSSRGSDYAYWGQGTQVTVSS[human IgG1 Fc with changes cut from this listing]
notes: VHH cloned into vector BI3.4-huIgG1 (hinge and human IgG1 Fc), made in HEK293E; also called 5002-NB150-5
B8: S002-NB150-40 VHH-Fc (Fc fusion)
chain: QVQLVESGGGLVQDGGSLRLSCAASGLTFSFYNMGWFRQAPGKEREFVAAISQSGLSTHYADSMKGRFTISRDNAKNTVYLQMNSLNPVDTAAYYCAAGRRGYLASTTNDYEYWGQGTQVTVSS[human IgG1 Fc with changes cut from this listing]
notes: VHH cloned into vector BI3.4-huIgG1 (hinge and human IgG1 Fc), made in HEK293E; also called 5002-NB150-40
B9: S002-NB150-42 VHH-Fc (Fc fusion)
chain: QVQLVESGGGLVQAGDSLKLSCLASGITFSSYYMSWFRQAPGKEREFVAGVGRSGAPSHHADSVKGRFTISRDNAKSAVYLQMNSLQPEDTAVYFCAAKWMAASTTVADYWGQGTQVTVSS[human IgG1 Fc with changes cut from this listing]
notes: VHH cloned into vector BI3.4-huIgG1 (hinge and human IgG1 Fc), made in HEK293E; also called 5002-NB150-42
B10: S002-NB150-57 VHH-Fc (Fc fusion)
chain: QVQLVESGGGLVQAGDSLRLSCAVTGRAYSRSDMGWFRQAPGKEREIVAVITFGGGTDYADSVKGRFTISSEDTKNTLYLQMNSLQPEDTAVYYCAAGFRGSRWSTAARRKEDDYAFWGQGTQVTVSS[human IgG1 Fc with changes cut from this listing]
notes: VHH cloned into vector BI3.4-huIgG1 (hinge and human IgG1 Fc), made in HEK293E; also called 5002-NB150-57
B11: S002-NB151-13 VHH-Fc (Fc fusion)
chain: QVQLVESGGGLVQAGDSLRLSCAASTRIFRSYVMGWFRQAPGKEREAVASIRWSNDTGTYADSVKGRFTISRDNAKNTVYLQMNSLKPEDTAVYSCAADSPPWGRTWYTGYDYWGQGTQVTVSS[human IgG1 Fc with changes cut from this listing]
notes: as for B4

Assays:
[1] = molecular target: T1, murine CD22-ECD-His; assay: ELISA on coated murine CD22-ECD-His, lower panel
Method: (§1) The plate was sealed with plastic film and incubated overnight at 4° C., the plate was washed 2 times with PBS the next day, and then a blocking solution [PBS+2% (w/w) BSA] was added for blocking at room temperature for 2 hours. […] After incubation at 37° C. for 2 hours, the plate was washed 3 times with PBS. HRP (horseradish peroxidase)-labeled secondary antibody (purchased from Sigma, catalog number: A0170) was added, and incubated at 37° C. for 2 hours, and the plate was washed 5 times with PBS. TMB substrate was added at 50 μl/well, and incubated at room temperature for 30 minutes, then a stop solution (1.0 N HCl) was added at 50 μl/well.

[2] = molecular target: T1, murine CD22-ECD-His; assay: ELISA, coated mouse CD22, antibody 0.0001 nM
Method: as §1

[3] = molecular target: T2, human CD22 domain5-7-His; assay: ELISA on coated human CD22 domain5-7-His, middle panel
[4] = molecular target: T1, murine CD22-ECD-His; assay: ELISA, coated mouse CD22, antibody 0.001 nM
Method: as §1

[5] = molecular target: T1, murine CD22-ECD-His; assay: ELISA, coated mouse CD22, antibody 0.00001 nM
Method: as §1

[6] = molecular target: T1, murine CD22-ECD-His; assay: ELISA, coated mouse CD22, antibody 10 nM
Method: as §1

[7] = molecular target: T3, cynomolgus monkey CD22 on peripheral blood B cells (cynomolgus monkey (Macaca fascicularis)); assay: FACS, cynomolgus PBMC, CD20+ B cells, antibody 1 nM
T3 construct: whole, on cells; also called cynomolgus monkey B cells
Method: After the cell suspension was centrifuged, the cells were resuspended in PBS containing 1% BSA, and then the cells were counted. […] After washing the cells three times, APC-labeled secondary antibody anti-human IgG Fc (catalog number: 409306, purchased from Biolegend) was added. After incubation at room temperature in the dark for 30 minutes, the cells were washed 5 times, gently resuspended with PBS containing 1% BSA, and detected and analyzed by FACS (FACS Canto™, purchased from BD Company).

[8] = molecular target: T2, human CD22 domain5-7-His; assay: ELISA on coated human CD22 domain5-7-His, top panel
[9] = molecular target: T1, murine CD22-ECD-His; assay: ELISA on coated murine CD22-ECD-His, upper panel
Method: as §1

| Binder | binding result [1] | OD450 [2] | EC50 (read off the curve) [3] [nM] | OD450 [4] | OD450 [5] | OD450 [6] | Proportion of VHH-Fc antibody positive cells to B cells (%) [7] [%] | binding result [8] | binding result [9] | binding result [3] |
| --- | --- | --- | --- | --- | --- | --- | --- | --- | --- | --- |
| B1 | no binding (tested: 100 nM) | 0.06 | ~0.1 | 0.05 | 0.05 | 0.06 | 67 |  |  |  |
| B2 |  | 0.06 |  | 0.06 | 0.07 | 0.07 | 85 | no binding (tested: 100 nM) | no binding (tested: 100 nM) |  |
| B3 |  | 0.07 |  | 0.06 | 0.07 | 0.07 | 32 | no binding (tested: 100 nM) | no binding (tested: 100 nM) |  |
| B4 |  | 0.07 |  | 0.06 | 0.08 | 0.08 | 20 | no binding (tested: 100 nM) | no binding (tested: 100 nM) |  |
| B5 |  | 0.08 |  | 0.06 | 0.07 | 0.08 | 3 | no binding (tested: 100 nM) | no binding (tested: 100 nM) |  |
| B6 |  | 0.05 |  | 0.05 | 0.05 | 0.06 | 73 |  | no binding (tested: 100 nM) | no binding (tested: 100 nM) |
| B7 |  | 0.05 |  | 0.05 | 0.05 | 0.06 | 3 |  | no binding (tested: 100 nM) | no binding (tested: 100 nM) |
| B8 |  | 0.05 |  | 0.05 | 0.05 | 0.05 | 3 |  | no binding (tested: 100 nM) | no binding (tested: 100 nM) |
| B9 | no binding (tested: 100 nM) | 0.05 |  | 0.05 | 0.05 | 0.06 | 3 |  |  | no binding (tested: 100 nM) |
| B10 | no binding (tested: 100 nM) | 0.05 |  | 0.05 | 0.05 | 0.06 | 3 |  |  | no binding (tested: 100 nM) |
| B11 |  |  |  |  |  |  | 3 |  |  |  |
